Structures can show the parent of a compound that is named as a salt. This is one part of the list. Single values are uncertain, as repeats are few or missing.
Tests used:
[1] = tested on: H9 teratoma-derived LAM model cells, TSC2-/-; test: percent SyTOX+ dead cells; higher = more cytotoxic; details: 5 µM, treatment time 72 h, culture: 3D hyaluronic acid hydrogel
[2] = tested on: H9 teratoma-derived LAM model cells, WT; test: percent SyTOX+ dead cells; higher = more cytotoxic; details: 5 µM, treatment time 72 h, culture: 3D hyaluronic acid hydrogel, genotype: WT
[3] = tested on: H9 teratoma-derived LAM model cells, TSC2-/-; test: percent of cells invaded past median invasion distance of vehicle control; LAM is lymphangioleiomyomatosis; the cells come from teratomas of the human stem cell line H9; higher = more invasion; extreme values may be limits of the assay; details: 5 µM, treatment time 72 h, culture: 3D hyaluronic acid hydrogel
[4] = tested on: H9 teratoma-derived LAM model cells, WT; test: as above; details: 5 µM, treatment time 72 h, culture: 3D hyaluronic acid hydrogel, genotype: WT
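Throughout, for percent SyTOX+ dead cells: cells seeded atop a hyaluronic acid gel crosslinked via MMP-cleavable peptides, containing vitronectin peptides and methylcellulose, imaged live by high-content microscopy with automated analysis, one technical replicate per compound.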
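Throughout, for percent of cells invaded past median invasion distance of vehicle control: live cells imaged by high content microscopy and scored with in-house automated image analysis, one technical replicate per compound in each genotype and rapamycin condition.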

Row | SMILES | percent SyTOX+ dead cells ([1]; rapamycin 0 nM) [%] | percent SyTOX+ dead cells ([1]; rapamycin 20 nM) [%] | percent SyTOX+ dead cells ([2]; rapamycin 0 nM) [%] | percent SyTOX+ dead cells ([2]; rapamycin 20 nM) [%] | percent ([3]; rapamycin 0 nM) [%] | percent ([3]; rapamycin 20 nM) [%] | percent ([4]; rapamycin 0 nM) [%] | percent ([4]; rapamycin 20 nM) [%]
1 | COc1cc2nccc(Oc3ccc(NC(=O)Nc4ccc(F)cc4F)c(F)c3)c2cc1OC | 14.1 | 23.1 | 40.9 | 36.1 | 16 | 15.7 | 3.89 | 3.48
2 | COc1cc(OC)c(C=C2C(=O)Nc3ccccc32)c(OC)c1 | 14.3 | 28.9 | 27 | 44.8 | 0 | 1.73 | 0 | 2.86
3 | C=CCc1cccc(/C=N/NC(=O)CN2CCN(Cc3ccccc3)CC2)c1O | 16.7 | 13.5 | 17.3 | 13.1 | 46.2 | 36.3 | 64.5 | 29.9
4 | CCn1c(-c2nonc2N)nc2c(C#CC(C)(C)O)ncc(OC[C@H]3CCCNC3)c21 | 13 | 7.19 | 19.1 | 9.47 | 12.3 | 16.9 | 12.4 | 18.1
5 | CNc1nccc(-c2cccnc2Oc2cc(C(=O)Nc3cccc(C(F)(F)F)c3)ccc2C)n1 | 8.76 | 3.65 | 32.2 | 31.4 | 16.6 | 31.2 | 12.2 | 21.6
6 | Cc1ccc(-c2ccc3c(ccc4sc5c(c43)NC[C@@H](C)NC5=O)n2)cn1 | 13.2 | 15.6 | 36.8 | 27.7 | 58.7 | 24.9 | 20.9 | 5.12
7 | Oc1nc(-c2ccc(C(F)(F)F)cc2)nc2c1CSCC2 | 10.1 | 4.93 | 2.9 | 2.82 | 42.6 | 23.1 | 61.7 | 54.1
8 | FC(F)(F)c1ccc(/C=C/c2nc(COc3ccc(CCCCn4ccnn4)cc3)co2)cc1 | 7.73 | 22.6 | 11 | 30.8 | 38.6 | 37.9 | 7.33 | 20.8
9 | Cc1[nH]c(/C=C2\C(=O)Nc3cc(-c4ccccc4)ccc32)c(C)c1CCC(=O)O | 89.3 | 76.1 | 90.9 | 75.9 | 15.4 | 10.6 | 4.57 | 6.28
10 | COc1cccc(-c2cc(=O)c3ccccc3o2)c1N | 5.04 | 10.2 | 12.6 | 7.89 | 43 | 19.4 | 31.2 | 19.4
11 | COc1cc2ncnc(Nc3cccc(Cl)c3)c2cc1OC [Tyrphostin AG 1478 mesylate] | 17.6 | 24.3 | 7.41 | 16.3 | 9.56 | 8.41 | 0.74 | 2.48
12 | CC(C)C[C@H](NC(=O)CNC(=O)c1cc(Cl)ccc1Cl)B(O)O [MLN2238, MLN-2238, Ixazomib] | 9.6 | 7.8 | 8.27 | 8.95 | 44 | 42.5 | 43.1 | 52.2
13 | CCOc1ccn(-c2ccc(F)cc2)c(=O)c1C(=O)Nc1ccc(Oc2ccnc(N)c2Cl)c(F)c1 | 13.1 | 3.25 | 22.8 | 25 | 94.9 | 38.3 | 83.8 | 20
14 | Cc1ccc(C(=O)Nc2cccc(C(F)(F)F)c2)cc1Nc1nc(-c2cccnc2)nc2c1cnn2C | 7.41 | 3.41 | 14.5 | 10 | 55.9 | 49.7 | 77.7 | 54
15 | COc1nccc(-c2c(-c3ccc(F)cc3)ncn2C2CCNCC2)n1 | 7.07 | 3.9 | 9.58 | 6.42 | 37.7 | 21.4 | 11.1 | 19
16 | CN(c1ncccc1CNc1nc(Nc2ccc3c(c2)CC(=O)N3)ncc1C(F)(F)F)S(C)(=O)=O | 35.2 | 33.2 | 34.9 | 35 | 43.4 | 48.2 | 24 | 33.1
17 | Cc1c[nH]c(/C=C2\C(=O)Nc3ccccc32)c1CCC(=O)O | 19.4 | 12.1 | 19.6 | 13.3 | 18.9 | 6.9 | 23.3 | 40.5
18 | COc1cc2ncc(-c3ccccc3)nc2cc1OC [Tyrphostin AG-1296] | 7.49 | 6.91 | 14.1 | 5.56 | 27.3 | 19.1 | 21.6 | 23
19 | Cn1cccc1/C=C1\C(=O)NC(=O)c2ccccc21 | 3.32 | 11.6 | 9.72 | 11.5 | 90 | 39.3 | 38.9 | 41.2
20 | CCN(CC)CCOC(=O)c1ccc(N)cc1 [Procaine hydrochloride] | 13.2 | 8.17 | 8 | 13.4 | 39 | 35 | 15.6 | 22.6
21 | CC(C)N(CCC(=O)c1ccc2ccccc2c1)Cc1ccccc1 | 18.4 | 10 | 13.8 | 7.14 | 69.5 | 50 | 17.4 | 69.3
22 | O=C(O)c1ccc(-c2c[nH]c3ncc(-c4ccccc4)cc23)cc1C1CCCC1 | 20.6 | 19.8 | 30.6 | 33.2 | 18.6 | 8.99 | 4.26 | 11.2
23 | Cc1ccc(-c2cn3c4c(sc3n2)CCCC4)cc1 [Cyclic Pifithrin-alpha hydrobromide] | 9.63 | 13.4 | 27 | 7.89 | 80.8 | 28.1 | 16.7 | 15.1
24 | CC[C@@H]1/C=C(\C)C[C@H](C)C[C@H](OC)[C@H]2O[C@@](O)(C(=O)C(=O)N3CCCC[C@H]3C(=O)O[C@H](/C(C)=C/[C@@H]3CC[C@H](Cl)[C@H](OC)C3)[C@H](C)[C@@H](O)CC1=O)[C@H](C)C[C@@H]2OC [Pimecrolimus, Elidel, SDZ-ASM-981] | 9.43 | 12.2 | 27.9 | 17.7 | 26.4 | 39.3 | 2.42 | 9.09
25 | COc1cc(N2CCC(N3CCN(C)CC3)CC2)ccc1Nc1ncnc(Nc2ccccc2S(=O)(=O)C(C)C)n1 | 9.44 | 9.22 | 31.5 | 23.6 | 91.1 | 36.2 | 71 | 23.1
26 | CCCNC(=O)Nc1ccc(Oc2ncnc3cc(OC)c(OC)cc23)cc1Cl | 4.38 | 6.3 | 10.5 | 18.3 | 91.2 | 44.1 | 81.8 | 21.3
27 | CNC(=O)c1cc(COc2nnc(Nc3ccc(Cl)cc3)c3ccoc23)ccn1 [BAY 57-9352, Telatinib] | 11.2 | 5.26 | 14.8 | 14.4 | 65.1 | 42.9 | 49.5 | 12.8
28 | CN(C)CC[C@H](CSc1ccccc1)Nc1ccc(S(=O)(=O)NC(=O)c2ccc(N3CCN(Cc4ccccc4-c4ccc(Cl)cc4)CC3)cc2)cc1[N+](=O)[O-] | 41.4 | 32.8 | 19.6 | 16 | 70.6 | 35.4 | 45.6 | 33.6
29 | Cn1cnc(-c2cc3nccc(Oc4ccc(NC(=S)NC(=O)Cc5ccccc5)cc4F)c3s2)c1 | 14.2 | 0.97 | 37 | 35.4 | 59.7 | 26.2 | 8.44 | 4.72
